This is an account of results in article PMC4336329 (PLoS ONE, 2015).

The structures appear in SMILES notation. In all, about 310,000 compounds went through this assay and about 2,200 (0.71%) showed an effect of 50% or more. The effect is printed as a negative number. The list shows a part of the results.

In the assay the target is human ether-à-go-go-related gene (hERG) potassium channel (human, UniProt Q12809). Nature of the assay: primary screen, population patch clamp on CHO cells stably expressing hERG.
Sequence of human ether-à-go-go-related gene (hERG) potassium channel (Q12809 whole entry, looked up): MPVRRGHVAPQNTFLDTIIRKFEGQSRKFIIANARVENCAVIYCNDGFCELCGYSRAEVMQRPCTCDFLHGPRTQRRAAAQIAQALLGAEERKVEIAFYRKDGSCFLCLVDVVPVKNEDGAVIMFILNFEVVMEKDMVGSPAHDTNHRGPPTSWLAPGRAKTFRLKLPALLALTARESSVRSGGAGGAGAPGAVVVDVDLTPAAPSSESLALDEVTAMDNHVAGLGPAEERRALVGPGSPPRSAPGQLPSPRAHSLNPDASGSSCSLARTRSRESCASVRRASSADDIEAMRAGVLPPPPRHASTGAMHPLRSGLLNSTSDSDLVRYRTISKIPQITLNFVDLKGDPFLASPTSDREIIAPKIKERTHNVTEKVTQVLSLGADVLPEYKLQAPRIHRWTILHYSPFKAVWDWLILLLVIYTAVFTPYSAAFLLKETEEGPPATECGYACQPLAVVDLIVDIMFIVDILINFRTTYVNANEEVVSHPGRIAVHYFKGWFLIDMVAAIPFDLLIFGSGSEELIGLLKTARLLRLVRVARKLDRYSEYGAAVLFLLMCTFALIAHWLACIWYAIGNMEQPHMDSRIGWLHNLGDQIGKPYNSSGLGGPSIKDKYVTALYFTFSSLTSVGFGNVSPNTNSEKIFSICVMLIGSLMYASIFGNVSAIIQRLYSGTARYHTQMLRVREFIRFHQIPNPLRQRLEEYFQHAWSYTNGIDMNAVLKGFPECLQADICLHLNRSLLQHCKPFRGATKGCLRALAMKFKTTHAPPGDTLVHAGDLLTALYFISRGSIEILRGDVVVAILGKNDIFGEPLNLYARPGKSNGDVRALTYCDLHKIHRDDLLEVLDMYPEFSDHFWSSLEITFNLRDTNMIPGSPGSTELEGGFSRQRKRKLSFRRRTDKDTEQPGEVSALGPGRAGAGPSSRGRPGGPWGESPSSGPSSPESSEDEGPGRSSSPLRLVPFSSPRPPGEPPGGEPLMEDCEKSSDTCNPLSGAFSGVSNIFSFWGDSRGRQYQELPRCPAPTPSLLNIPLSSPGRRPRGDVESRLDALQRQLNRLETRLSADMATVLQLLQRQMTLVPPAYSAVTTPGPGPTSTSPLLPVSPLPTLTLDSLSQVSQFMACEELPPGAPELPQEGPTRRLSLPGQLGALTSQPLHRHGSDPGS
As to `Clc1ccc2c(c1)C=Nc1c(NCc3ccccc3)ncnc1O2`, the “hERG current change (%, negative = inhibition) at 1uM” value is on record as 9.68%.
With `CS(=O)(=O)N(Cc1cc2ccccc2[nH]c1=O)C1CCCCC1` the figure was 7.26%; with `Cc1c(NC(=O)COC(=O)Cc2ccc(Br)cc2)c(=O)n(-c2ccccc2)n1C`, 8.62%.
With `CCOc1ncccc1C(=O)OCC(=O)Nc1cc(S(=O)(=O)N2CCOCC2)ccc1C` the figure was 7.29%; with `O=C(Nc1nnc(S(=O)(=O)N2CCCC2)s1)c1ccccc1Br`, 8.81%.
For `Cc1ncc([N+](=O)[O-])n1CC(=O)Nc1ccccc1F`, the “hERG current change (%, negative = inhibition) at 1uM” value was 4.96%.
As to `CCOC(=O)N1CCN(C(=O)C2CCN(S(=O)(=O)c3c(C)cc(C)cc3C)CC2)CC1`, the “hERG current change (%, negative = inhibition) at 1uM” value came to 0.358%.
With `COC(=O)c1sc(NC(=S)NC(=O)c2cc(OC)c(OC)c(OC)c2)nc1C` the figure was 10.9%; with `COc1ccc(C2C3=C(CC(C)(C)CC3=O)Nc3c2c(=O)[nH]c2nc(C)nn32)cc1` (centres unmarked), 4.21%.
With `O=C(COc1cc(O)c2c(=O)cc(-c3ccccc3)oc2c1)c1cccc([N+](=O)[O-])c1` the figure was 8.7%.
The result for `CC(C)(CNC(=O)C1CCCN1C(=O)c1cccs1)N1CCOCC1` (centres unmarked) reads 13.1%.
Take `COc1cccc(C(=O)N2CCN=C2SCc2cccnc2)c1OC`: the “hERG current change (%, negative = inhibition) at 1uM” value turned out to be 8.1%.
For `CC(CC(=O)Nc1nnc(CC(C)(C)C)s1)c1ccccc1` (centres unmarked), the “hERG current change (%, negative = inhibition) at 1uM” value amounted to 23.5%.
With `O=S(=O)(c1ccc2c(c1)OCCO2)N1CCC(n2cnc3cc(F)ccc32)CC1` the figure was -7.8%; with `CNC(=O)c1ccc(OC2CSC2)cc1`, 16.8%; with `CC(OC(=O)Cn1cnc2c1c(=O)n(C)c(=O)n2C)C(=O)c1ccccc1` (centres unmarked), 6.77%.
The result for `CCC(C)C(NC(=O)C1CCC(C)CC1)C(=O)NC(CCSC)C(=O)OC` (centres unmarked) reads 0.532%; that for `CC1CN(C(=S)NC(=O)c2ccc(Cl)cc2)CC(C)O1` (centres unmarked), 14.5%.
The result for `CC1Cc2cc(S(=O)(=O)N3CCN(C)CC3)ccc2N1C(=O)C1CC1` (centres unmarked) reads 14.9%; that for `C/C(=N/NC(=O)C1CCCCC1)c1ccc([N+](=O)[O-])cc1`, 14.8%.
Regarding `COc1ccc(CC(=O)NCC2(c3ccc(OC)c(OC)c3)CCOCC2)cc1`, the “hERG current change (%, negative = inhibition) at 1uM” value is 15.5%.
With `Cc1ccc(C(C)C)c(OCc2ccc(C(=O)N/N=C/c3ccc(O)cc3O)cc2)c1`, the “hERG current change (%, negative = inhibition) at 1uM” value is reported as 7.03%.
As for `COc1cccc(NC(=O)CN(C)C(=O)CC(NC(=O)c2ccccc2Cl)c2ccccc2)c1` (centres unmarked), the “hERG current change (%, negative = inhibition) at 1uM” value is -3.1%.
In the case of `Brc1cnc(N2CCOCC2)nc1N1CCCCC1`, the “hERG current change (%, negative = inhibition) at 1uM” value came to 1.12%.
With `COc1ccc2c(c1)-c1c(ssc1=S)C(C)(C)N2C(=O)CSC1=NCCS1` the figure was 10.6%; with `COC(=O)c1c(-c2ccccc2)noc1-c1ccccc1`, 9.13%; with `COc1ccc(-c2[nH]ncc2CN2CCCOc3c(cccc3OC)C2)c(OC)c1`, -14.3%.
With `OCC[C@H]1C[C@@H](O)[C@H](O)[C@]2(OCc3ccccc32)O1` the figure was -0.74%; with `O=C(NC1CCCC1)C1CCCN(S(=O)(=O)c2cnc[nH]2)C1` (centres unmarked), 17.8%; with `CCn1c(CCNC(=O)c2ccc(F)cc2)nc2ccccc21`, -7.21%.
Regarding `CCN(CC(=O)NCc1ccc(Cl)cc1)C(=O)CCC(=O)c1ccc(F)cc1`, the “hERG current change (%, negative = inhibition) at 1uM” value is listed as -52.2%.
Turning to `CCC(C)n1c(SCC(=O)Nc2ccc3[nH]c(=O)[nH]c3c2)nc2ccccc2c1=O` (centres unmarked), the “hERG current change (%, negative = inhibition) at 1uM” value is 15.7%.
With `CCN(CC)Cc1c(CC(C)C)oc(C)c1C(=O)O.Cl` the figure was 6.58%; with `CCn1c(CN2CCN(C(c3ccccc3)c3ccccc3)CC2)nc2c1c(=O)n(C)c(=O)n2C`, -17.7%; with `CC(C)=NNC(=O)C1=NNC(=O)C1`, 16.1%.
Regarding `Cc1ccc(CCNC(=O)CNC(=O)c2cccs2)cc1`, the “hERG current change (%, negative = inhibition) at 1uM” value is recorded as 11.5%.
Turning to `CC(C)NC(=O)Cn1c(SCC(=O)NC2CCCC2)nc2ccccc21`, the “hERG current change (%, negative = inhibition) at 1uM” value is given as 4.46%.
The result for `Cc1cccc(-n2cnc(C(=O)N/N=C\c3ccc(Br)cc3)c2)n1` reads 1.49%.
For the molecule `CCC(=O)N1CCc2cc(S(=O)(=O)Nc3ccc4c(c3)OCCO4)ccc21`, the “hERG current change (%, negative = inhibition) at 1uM” value is on record as 9.68%.
On to `CCOCCCNC(=O)CCn1nc(-c2ccc(Cl)cc2)ccc1=O`, for which the “hERG current change (%, negative = inhibition) at 1uM” value is -1.75%.
With `Cc1cc(NC(=O)CSCc2ccc([N+](=O)[O-])cc2)no1` the figure was -0.908%.
Take `O=C(C1CCN(Cc2nc(Cc3cccc(F)c3)no2)CC1)N1CCOCC1`: the “hERG current change (%, negative = inhibition) at 1uM” value turned out to be 6.83%.
As for `COCc1nnc(NC(=O)CCCOc2ccccc2)s1`, the “hERG current change (%, negative = inhibition) at 1uM” value is -6.25%.
The result for `CC(C)C(=O)Nc1ccc(NC(=O)c2cc3ccccc3o2)cc1` reads 2.11%; that for `CCCC1CC(CSc2ncn[nH]2)OC1=O` (centres unmarked), 1.24%.
`CCN(c1ccccc1)S(=O)(=O)c1ccc(C(=O)N(CCCN(C)C)c2nc3cc4c(cc3s2)OCO4)cc1.Cl`: the “hERG current change (%, negative = inhibition) at 1uM” value is 15.3%.
In the case of `C=CCn1c(SCC(=O)Nc2c(C)n(C)n(-c3ccccc3)c2=O)nc2sc(C)c(-c3ccccc3)c2c1=O`, the “hERG current change (%, negative = inhibition) at 1uM” value is reported as 3.6%.
As for `CCCCn1c(N)c(N(CCOC)C(=O)c2cc(-c3ccccc3Cl)nc3ccccc23)c(=O)[nH]c1=O`, the “hERG current change (%, negative = inhibition) at 1uM” value was -12.9%.
With `COc1cc(S(=O)(=O)N2CCCCCC2)ccc1-n1cnnn1` the figure was 7.03%; with `Cn1cc(C(=O)NS(=O)(=O)Nc2ccc(Br)cc2)c2ccccc21`, 14.8%; with `C=C(C)Cn1c(COc2ccccc2)nnc1SCC(=O)O`, 10.9%.
The result for `O=S(=O)(c1ccccc1)N1N=C(c2cccs2)CC1c1ccc(Br)cc1` (centres unmarked) reads 14.7%; that for `O=C1NC(Cc2c[nH]c3ccccc23)C(=O)N1CCOc1ccccc1` (centres unmarked), -2.02%; that for `Cc1ccc(C(=O)c2ccccc2C(=O)OCC(=O)N2CC(C)CC(C)C2)cc1` (centres unmarked), 2.11%.
As to `COc1cccc(-c2ccc(SCc3ccccn3)nn2)c1`, the “hERG current change (%, negative = inhibition) at 1uM” value amounted to 6.98%.
The result for `CCOC(=O)C(NC(=O)N1CCCCC1)(c1ccccc1)C(F)(F)F` (centres unmarked) reads 12.2%.
